The supplement of paper PMC12217912
The list shows a part of the results. Sequences were assembled here from the parent chain. Values near 0.05 are background.

B1: TEV protease; numbered along this chain (parent)
chain: MGESLFKGPRDYNPISSSICHLTNESDGHTTSLYGIGFGPFIITNKHLFRRNNGTLVVQSLHGVFKVKDTTTLQQHLVDGRDMIIIRMPKDFPPFPQKLKFREPQREERICLVTTNFQTKSMSSMVSDTSCTFPSGDGIFWKHWIQTKDGQCGSPLVSTRDGFIVGIHSASNFTNTNNYFTSVPKNFMELLTNQEAQQWVSGWRLNADSVLWGGHKVFMVKPEEPFQPVKEATQL

Variants of: B1
Experiment: raw area under fraction-flipped curve 0-4 h after induction (AUC4h, not background-subtracted), DNA-recorder readout of cleavage of the substrate (dimensionless); higher = more cleavage of the substrate by the protease variant
Conditions: temperature: 34 °C; time window: 0-4 h after rhamnose induction
Description: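 In vivo DNA recorder in E. coli TOP10(DE3) ΔrhaA at 34 °C. Each TEVp single-site mutant (parent TEVp 0) is paired with a single-site variant of the 7-mer TEVs (canonical ENLYFQ|S). The substrate sits between flexible linkers in a Bxb1-sfGFP-TEVs-SsrA fusion, so cleavage stabilises Bxb1 and speeds flipping of a recombination array, read by NGS. The value is the raw area under the fraction-flipped curve over 0-4 h after rhamnose induction (AUC4h), with ≥20 reads per time point. It is not background-subtracted; inactive controls average about 0.047.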
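Also: Bxb1 expression induced with 0.2% (w/v) L-rhamnose at OD600 near 0.5, cultures sampled hourly, flipped fraction per protease–substrate barcode pair counted by paired-end Illumina sequencing.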

Variant	area with substrate ENLYDQS	area with substrate ENLYEQS	area with substrate ENLYGQS	area with substrate ENLYHQS	area with substrate ENLYIQS	area with substrate ENLYKQS	area with substrate ENLYLQS	area with substrate ENLYMQS	area with substrate ENLYPQS	area with substrate ENLYRQS	area with substrate ENLYSQS	area with substrate ENLYTQS	area with substrate ENLYVQS	area with substrate ENLYWQS	area with substrate ENLYYQS	area with substrate ENLYNQS	area with substrate ENLYQQS
MGESLFKGPRDYNPISSSICHLTNESDGHTTSLYGIGFGPMIITNKHLFRRNNGTLVVQSLHGVFKVKDTTTLQQHLVDGRDMIIIRMPKDFPPFPQKLKFREPQREERICLVTTNFQTKSMSSMVSDTSCTFPSGDGIFWKHWIQTKDGQCGSPLVSTRDGFIVGIHSASNFTNTNNYFTSVPKNFMELLTNQEAQQWVSGWRLNADSVLWGGHKVFMVKPEEPFQPVKEATQL [F41M]	0.0562	0.0735	0.0795	0.0613	0.135	0.0658	0.0954	0.0997	0.0659	0.0537	0.0756	0.0824	0.162	0.0832	0.0581	–	–
MGESLFKGPRDYNPISSSICHLTNESDGHTTSLYGIGFGPFIITNKHLFRRNNGTLVVQSLHGVFKVKDTTLLQQHLVDGRDMIIIRMPKDFPPFPQKLKFREPQREERICLVTTNFQTKSMSSMVSDTSCTFPSGDGIFWKHWIQTKDGQCGSPLVSTRDGFIVGIHSASNFTNTNNYFTSVPKNFMELLTNQEAQQWVSGWRLNADSVLWGGHKVFMVKPEEPFQPVKEATQL [T72L]	0.0649	0.0475	0.0573	–	0.136	–	0.0769	–	0.0587	0.0787	–	–	–	–	0.0542	0.0404	–
MGESLFKGPRDYNPISSSICHLTNESDGHTTSLYGIGFGPFIITNKHLFRRNNGTLVVQSLHGVFKVKDTTTLQQHLVDGRDMIIIRMPKDFPPFPQKLKFREPQREERICLVTTNFQTKSMSSMVSDTSCTFPSGDGIFWKHWIQTKDGQCGSPLVSTRDGFIVGIHSASNFTNTFNYFTSVPKNFMELLTNQEAQQWVSGWRLNADSVLWGGHKVFMVKPEEPFQPVKEATQL [N177F]	0.0499	0.062	0.0628	0.0806	0.0665	0.0657	0.0708	0.0563	0.0738	0.0559	0.07	–	0.111	0.0647	0.0887	0.0564	0.0581
MGESLFKGERDYNPISSSICHLTNESDGHTTSLYGIGFGPFIITNKHLFRRNNGTLVVQSLHGVFKVKDTTTLQQHLVDGRDMIIIRMPKDFPPFPQKLKFREPQREERICLVTTNFQTKSMSSMVSDTSCTFPSGDGIFWKHWIQTKDGQCGSPLVSTRDGFIVGIHSASNFTNTNNYFTSVPKNFMELLTNQEAQQWVSGWRLNADSVLWGGHKVFMVKPEEPFQPVKEATQL [P9E]	0.0602	0.0629	0.0653	0.0488	–	0.0279	0.0734	0.0679	–	–	–	–	0.0721	–	–	0.057	–
MGESLFKGPRDYNPISSSICHLTNESDGHTTSLYGIGFGPFIITNKHLFRRNNGTLVVQSLHGVFKVKDTTTLQQHLVDGRDMIIIRMPKDFPPFPQKLKFREPQREERICLVTTNFQTKSMSSMVSDTSCTFPSGDGIFWKHWIQTKDGQCGSPLVSTRDGFIVGIHSASNFTNTNNYFTSVPKNFMELLTNQEAQQWVSGWRLNADSVLWGLHKVFMVKPEEPFQPVKEATQL [G214L]	0.0602	0.0633	–	0.0694	–	0.0682	0.047	0.0603	–	–	0.0557	–	0.0657	–	–	0.0651	0.0372
MGESLFKGPRDYNPISSSICHLTNESDGHTTSLYGIGFGPFIITNKHLFRRNNGTLVVQSLHGVFKVKDTTTLQQHLVDGRDMIIIRMPKDFPPFPQKLKFREPQREEDICLVTTNFQTKSMSSMVSDTSCTFPSGDGIFWKHWIQTKDGQCGSPLVSTRDGFIVGIHSASNFTNTNNYFTSVPKNFMELLTNQEAQQWVSGWRLNADSVLWGGHKVFMVKPEEPFQPVKEATQL [R109D]	0.072	–	–	0.051	0.107	0.0616	–	0.124	0.0682	0.0633	–	–	–	–	0.0609	0.0663	0.0391
MGESLFKGPRDYNPISSSICHLTNESDGHTTSLYGIGFGPFIITNKHLFRRNNGTLVVQSLHGVFKVKDTTTLQQHLVDGRDMIIIRMPKDFPPFPQKLKFREPQREERICLVTTNFQTKSMSSMVSDTSCTFPSGDGIFWKHWIQTKDGQCGSPLVSTRDGFIVGIHSASNFTNTNNYFTSVPKNFMELLTNQEAQQWVSGWRLNADSVLWGGHKVFMVKPEEPFQPVKEITQL [A232I]	0.0624	–	–	0.0677	0.119	0.0684	–	0.086	–	–	–	–	–	0.0893	–	0.0771	0.0638
MGESLFKGPRDYNPISSSICHLTNESDGHTTSLYGIGFGPFIITNKHLFRRNNGTLVVQSLHGVFKVKDTTTLQQHLVDGRDMIIIRMPKDFPPFPQKLKFREPQREERICLVTTNFQTKSMSSMVSDTSCTFPSGDGIFWKHWIQTKDGQCGSPLVSTRDGFIVGIHSASNFTNTNNYFTSVPKNFMELLTNQEAQQWVSGWRLNADSVLWGGHKVFMVKPEEPFQPVKEAVQL [T233V]	0.0645	–	0.0637	0.105	0.0869	–	–	–	–	–	0.0844	–	0.088	–	–	0.0716	0.0562
MGESLFKGPRDYNPISSSICHLTNESDGHTTSLYGIGFGPFIITNKHLFRRNNGTLVIQSLHGVFKVKDTTTLQQHLVDGRDMIIIRMPKDFPPFPQKLKFREPQREERICLVTTNFQTKSMSSMVSDTSCTFPSGDGIFWKHWIQTKDGQCGSPLVSTRDGFIVGIHSASNFTNTNNYFTSVPKNFMELLTNQEAQQWVSGWRLNADSVLWGGHKVFMVKPEEPFQPVKEATQL [V58I]	0.0369	–	0.0538	0.0682	0.113	–	0.0923	0.107	0.0092	–	–	0.0903	0.118	–	–	–	–
MGESLFKGPRDYNPISSSICHLTNESDGHTTSLYFIGFGPFIITNKHLFRRNNGTLVVQSLHGVFKVKDTTTLQQHLVDGRDMIIIRMPKDFPPFPQKLKFREPQREERICLVTTNFQTKSMSSMVSDTSCTFPSGDGIFWKHWIQTKDGQCGSPLVSTRDGFIVGIHSASNFTNTNNYFTSVPKNFMELLTNQEAQQWVSGWRLNADSVLWGGHKVFMVKPEEPFQPVKEATQL [G35F]	0.0445	0.0496	0.0339	0.0467	0.0488	–	–	–	–	0.0571	–	–	–	–	–	0.0453	–
